Assay [1] concerns huROR1-HEK293 cells. Briefly: Antibody internalization by Fab-Zap method (MTS readout). The assay is classed as cell-based, human. Conditions: 48 h, relative to control antibody 99961.1.
In assay [2] the test system is huROR1-HEK293 cells. The assay can be described thus: Antigen-dependent killing effect of ADC, CCK8 assay. Format: cell-based, human. The settings on record: CCK8, 96 h; pre-incubation with 100 μg/mL antibody before corresponding MMAE ADC. Background: Tetrazolium assays rely on reduction of a dye to a coloured formazan, in cell work by metabolically active cells.
The target in assay [3] is T1, human ROR1 on A549 tumor cells (Homo sapiens, UniProt Q01973).
T1 construct: endogenous in cells; host or cells: A549 (human non-small cell lung cancer)
T1 sequence (Q01973 30-937): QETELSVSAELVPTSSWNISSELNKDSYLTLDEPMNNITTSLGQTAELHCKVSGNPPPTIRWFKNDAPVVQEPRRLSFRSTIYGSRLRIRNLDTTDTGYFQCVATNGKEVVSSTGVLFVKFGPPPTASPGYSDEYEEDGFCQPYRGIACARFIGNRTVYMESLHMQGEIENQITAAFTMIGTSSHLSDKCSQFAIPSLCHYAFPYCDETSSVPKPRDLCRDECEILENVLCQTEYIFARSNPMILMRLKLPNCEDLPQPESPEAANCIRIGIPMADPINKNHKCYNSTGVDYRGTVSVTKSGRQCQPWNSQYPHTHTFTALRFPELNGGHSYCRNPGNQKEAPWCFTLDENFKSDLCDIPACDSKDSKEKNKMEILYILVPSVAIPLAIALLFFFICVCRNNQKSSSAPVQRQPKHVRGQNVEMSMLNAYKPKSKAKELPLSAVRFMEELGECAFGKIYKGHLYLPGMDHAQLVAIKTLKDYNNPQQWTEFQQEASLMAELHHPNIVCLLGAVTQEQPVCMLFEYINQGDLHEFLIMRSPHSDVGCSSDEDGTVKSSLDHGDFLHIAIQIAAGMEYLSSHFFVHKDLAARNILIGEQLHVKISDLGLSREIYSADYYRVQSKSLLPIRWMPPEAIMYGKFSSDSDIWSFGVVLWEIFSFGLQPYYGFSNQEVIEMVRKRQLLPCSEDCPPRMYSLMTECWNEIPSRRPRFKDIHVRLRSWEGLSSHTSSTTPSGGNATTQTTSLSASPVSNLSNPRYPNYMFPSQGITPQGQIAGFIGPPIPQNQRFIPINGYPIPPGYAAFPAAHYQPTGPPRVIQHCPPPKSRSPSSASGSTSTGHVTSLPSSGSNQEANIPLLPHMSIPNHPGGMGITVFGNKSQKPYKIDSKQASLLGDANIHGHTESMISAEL
The assay can be described thus: FACS binding to A549 tumor cells. Background: In flow cytometry, cells or beads pass a laser one at a time.

Assay [4] relates to MDA-MB-468 cells. The assay can be described thus: ADC tumor cell killing, CCK8 assay, MDA-MB-468. Format: cell-based, human. Conditions: CCK8, 72 h.
Assay [5] deals with HT-29 tumor cells. The assay can be described thus: ADC internalization efficiency by FACS, HT-29. Format: cell-based, human. The settings on record: relative to positive control ADC.
Assay [6] deals with HT-29 tumor. Briefly: ADC efficacy in mouse model bearing HT-29 tumor. The assay is classed as in vivo.
For assay [7], the system named is A549 tumor cells. Briefly: ADC internalization efficiency by FACS, A549. The assay is classed as cell-based, human. The settings on record: relative to control ADC 99961.1-MMAE.
The subject of assay [8] is Jeko-1 cells. The assay can be described thus: ADC tumor cell killing, CCK8 assay, Jeko-1. The assay is classed as cell-based, human. The settings on record: CCK8, 72 h.
In assay [9] the test system is HT-29 cells. The assay can be described thus: ADC tumor cell killing, MTS assay, HT-29. The settings on record: 96 h, relative to control 99961.1-MMAE. Format: cell-based, human.
In assay [10] the test system is A549 tumor. The assay can be described thus: ADC efficacy in mouse model bearing A549 tumor. Conditions: 10 mpk. Format: in vivo.
Assay [11] concerns the target T2, human ROR1 on HT-29 tumor cells (Homo sapiens, UniProt Q01973).
T2 construct: endogenous in cells; host or cells: HT-29 (human colon cancer)
Briefly: FACS binding to HT-29 tumor cells. The settings on record: relative to corresponding positive controls (99961.1, 99961.1-MMAE).

The test system of assay [12] is A549 cells. Briefly: ADC tumor cell killing, MTS assay, A549. The assay is classed as cell-based, human. Conditions: 72 h, relative to control 99961.1-MMAE.
In assay [13] the test system is NCI-H1944 cells. The assay can be described thus: ADC tumor cell killing, CCK8 assay, NCI-H1944. Format: cell-based, human. The settings on record: CCK8, 72 h.

T2 sequence (Q01973 30-937): as above

B1: B31-H3L3: humanized anti-ROR1 antibody derived from murine antibody B31; CDRs SEQ ID NO 4-6, 43, 46, 48 (antibody)
heavy: EVQLVESGGGLVQPGGSLRLSCAASGFTFSRYAMSWVRQAPGKGLEWVASISRGGSTYYADSVKGRFTISRDNSKNTLYLQMNSLRAEDTAVYYCASYFGNYDAMDYWGQGTTVTVSS[human IgG1 constant region not listed]
light: DIQMTQSPSSLSASVGDRVTITCRASQDINNYVSWFQQKPGKAPKSLIYRANRLVSGVPSRFSGSGSGTDFTFTISSLQPEDFATYYCLQFDEFPYTFGGGTKLEIKRTVAAPSVFIFPPSDEQLKSGTASVVCLLNNFYPREAKVQWKVDNALQSGNSQESVTEQDSKDSTYSLSSTLTLSKADYEKHKVYACEVTHQGLSSPVTKSFNRGEC
On to B1, for which the “internalization effect/rate (Fab-Zap)” value in [1] is recorded as “comparable to that of the control antibody 99961.1”. The “killing effect of the ADC on huROR1-HEK293 cells inhibited by the corresponding antibody” value in assay [2] is “significantly competitively inhibited”.

B2: B62-H3L3-MMAE (conjugate)
heavy: EVQLVESGGGLVQPGGSLRLSCAASGFTFSSYVMSWVRQAPGKGLEYVATINSNGGNTYYADSVKGRFTISRDNSKNTLYLQMGSLRAEDTAMYYCARDSLGLRRRDYAMDYWGQGTTVTVSS[human IgG1 constant region not listed]
light: DIQMTQSPSSLSASVGDRVTITCVTSIDIDDDVNWYQQKPGKAPKLLISAGNTLRPGVPSRFSGSGSGTDFTFTISSLQPEDIATYYCLQSDNLPYTFGGGTKLEIKRTVAAPSVFIFPPSDEQLKSGTASVVCLLNNFYPREAKVQWKVDNALQSGNSQESVTEQDSKDSTYSLSSTLTLSKADYEKHKVYACEVTHQGLSSPVTKSFNRGEC
A word on the EC50: it is the concentration that produces a half-maximal response. A low value points to higher potency in that assay. B2: the “binding activity of ADC to A549 cells relative to the corresponding naked antibody” value in [3] (after coupling) was “slightly inferior to those of the corresponding naked antibodies”. In assay [3] (in words, relative to control 99961.1 (ADC: 99961.1-MMAE)), the “binding activity/affinity to A549 tumor cells” value is recorded as “superior to those of the corresponding positive controls”. The EC50 in [4] stood at 28.6 nM; in assay [8] it was 50.1 nM; in assay [13], 129 nM. Further, the “internalization rate in HT-29 cells” value in assay [5] is listed as “slightly lower than that of the positive control ADC”. Moreover, the “Tumor growth inhibition (TGI)” value in assay [6] (2 mpk, tail vein BIW*4, day 23) is −1.05%; in [6] (2 mpk, tail vein BIW*4, day 27) it was 1.92%; in assay [6] (2 mpk, tail vein BIW*4, day 30), −2.38%; in assay [6] (2 mpk, tail vein BIW*4, day 34) it was 4.20%; in assay [6] (2 mpk, tail vein BIW*4, day 37), 17.04%; in assay [6] (2 mpk, tail vein BIW*4, day 41), 16.26%. For the same molecule, the “Tumor growth inhibition (TGI)” value in [6] (2 mpk, tail vein BIW*4, day 44) stood at 23.06%; in assay [6] (2 mpk, tail vein BIW*4, day 48) it was 27.19%; in assay [6] (2 mpk, tail vein BIW*4, day 51), 33.54%; in [6] (10 mpk, tail vein BIW*4, day 23), 20.27%; in [6] (10 mpk, tail vein BIW*4, day 27) it was 29.04%; in [6] (10 mpk, tail vein BIW*4, day 30) it was 23.90%. Besides, the “Tumor growth inhibition (TGI)” value in [6] (10 mpk, tail vein BIW*4, day 34) stood at 48.45%; in assay [6] (10 mpk, tail vein BIW*4, day 37) it was 63.35%; in assay [6] (10 mpk, tail vein BIW*4, day 41), 67.65%; in [6] (10 mpk, tail vein BIW*4, day 44), 68.50%; in [6] (10 mpk, tail vein BIW*4, day 48), 73.86%; in assay [6] (10 mpk, tail vein BIW*4, day 51) it was 73.87%. In addition, the “Tumor growth inhibition (TGI)” value in assay [10] (tail vein BIW*3, day 27) came to 18.82%; in assay [10] (tail vein BIW*3, day 31), 33.29%; in [10] (tail vein BIW*3, day 34), 30.91%; in [10] (tail vein BIW*3, day 38) it was 40.03%; in assay [10] (tail vein BIW*3, day 41), 37.77%; in assay [10] (tail vein BIW*3, day 45), 35.15%. Moreover, in [10] (tail vein BIW*3, day 48), the “Tumor growth inhibition (TGI)” value was determined as 36.38%. In [6] (high-dose (10 mpk), BIW*4), the tumor inhibition effect entry is “significant tumor inhibition effects”. In addition, the “tumor inhibition effect relative to 99961.1-MMAE” value in assay [6] (high-dose (10 mpk), BIW*4) was “slightly weaker than that of the control ADC 99961.1-MMAE”. The “Tumor growth inhibition relative to control ADC” value in [6] (lower dose (2 mpk), BIW*4) is recorded as “significantly better than that of the control ADC 99961.1-MMAE”. For the same molecule, the “internalization rate in A549 cells” value in [7] is given as “slightly lower than that of the positive control ADC”. The “killing effect on HT-29 tumor cells” value in [9] is given as “slightly inferior to that of the control 99961.1-MMAE”. In assay [10] (BIW*3), the “anti-tumor effect relative to positive control ADC” value is “comparable to that of the positive control ADC”. Moreover, the “binding activity to HT-29 cells” value in assay [11] is “slightly superior to those of the corresponding positive controls”. The “killing effect on A549 tumor cells” value in [12] was “slightly inferior to that of the control 99961.1-MMAE”.

(Values after patent US20250177546A1, “ROR1-TARGETED BINDING MOLECULE AND USE THEREOF” (SANYOU BIOPHARMACEUTICALS CO., LTD., priority 2022, published 2025).)
